Laboratory results: PubChem BioAssay AID624414 (National Center for Advancing Translational Sciences (NCATS), 2012)
“And” between values parts separate entries of the source, which are not always exact repeats. Identical values can stand only once. In all, about 410,000 compounds went through this assay and about 480 (0.12%) were called active. The inconclusive results got no clear call from the source; some entries with a clear call stand among them for comparison. No stated cut-off is given here; in the data, active means activation above about 50%; inconclusive means mostly about 30% to 49%; inactive means weaker than that.

What follows are compounds tested against Mucolipin-1 (Homo sapiens) (UniProt Q9GZU1) (assay: qHTS for Agonists of the Human Mucolipin Transient Receptor Potential 1 (TRPML1)). Details: TRPML1-expressing cells, Ca2+ dye fluorescence, FDSS; stronger effect = higher value.
In short: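 Tet-induced TRPML1-DL cells, 1,500 per well, cultured overnight, were loaded with a no-wash Ca2+ dye for 45–90 min. Calcium fluorescence was recorded on the FDSS for 110 s after compound addition, before the EC80 agonist (4 uM 54-4) was added.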
Further: 0% is about no effect.

UniProt Q9GZU1, sequence (Q9GZU1 whole entry, looked up): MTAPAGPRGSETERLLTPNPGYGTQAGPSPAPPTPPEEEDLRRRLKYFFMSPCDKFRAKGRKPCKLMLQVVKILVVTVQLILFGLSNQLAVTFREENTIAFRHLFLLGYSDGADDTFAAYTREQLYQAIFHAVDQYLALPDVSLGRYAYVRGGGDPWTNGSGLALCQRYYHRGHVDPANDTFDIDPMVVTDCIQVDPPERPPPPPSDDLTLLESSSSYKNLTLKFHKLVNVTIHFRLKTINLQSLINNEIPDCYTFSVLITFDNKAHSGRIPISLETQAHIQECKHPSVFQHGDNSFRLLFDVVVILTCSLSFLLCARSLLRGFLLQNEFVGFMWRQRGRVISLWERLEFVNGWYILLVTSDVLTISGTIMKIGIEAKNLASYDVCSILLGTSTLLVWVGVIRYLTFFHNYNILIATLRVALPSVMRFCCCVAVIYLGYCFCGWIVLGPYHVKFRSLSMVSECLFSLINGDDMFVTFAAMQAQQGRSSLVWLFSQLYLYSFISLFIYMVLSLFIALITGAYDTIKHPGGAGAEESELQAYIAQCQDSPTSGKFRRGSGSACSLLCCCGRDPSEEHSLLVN

activation, inconclusive:
CN1/C(=C\C=C(/C#N)C(=O)Nc2ccccc2F)C(C)(C)c2ccccc21 48.9%, Nc1c(C(=O)C2CC2)sc2nc(-c3ccccc3)cc(C(F)(F)F)c12 35%, Cc1ccc(NC(=O)c2sc3nc(C)nc(N4CCN(c5ccccn5)CC4)c3c2C)c(C)c1 42.7%, N#C/C(=C/c1ccc(-c2ccccc2)o1)c1nc(-c2cccs2)cs1 42.2%, O=C1/C(=C/c2ccccc2)Nc2ccccc21 47.4%, COc1ccc(C2CC(c3cccs3)=NN2c2ccc(C=O)cc2)cc1 (centres undefined) 47.3%, Cn1c(=O)c(Nc2ccc(Cl)cc2)c2c3c(cccc31)C(=O)c1ccccc1-2 34.7%, CCOC(=O)c1cc2cc(CC(=O)c3ccc(OCC)cc3O)ccc2o1 34.4%, O=C1C(c2ccccc2)C(c2ccccc2)NC(c2ccccc2)C1c1ccccc1 (centres undefined) 35.3%, CCCCCC(=O)NNC(=O)c1c(O)c2ccccc2n(CC)c1=O 31.3%, Cn1cccc1/C=C1\CCC/C(=C\c2cccn2C)C1=O 43.2%, O=C(CN1CCCCCC1)Nc1ccc(Oc2ccccc2)cc1 36.7%, CCOC(=O)C1C(=O)C=C(/C=C/c2ccc(N(C)C)cc2)CC1c1ccccc1 (centres undefined) 42%, CCc1ccc(S(=O)(=O)N2CCCC(N3CCN(c4ccc(OC)cc4)CC3)C2)cc1 (centres undefined) 30.9%, CCOc1cccc(C2C(C#N)=C(N)Oc3cc(C)n(Cc4ccccn4)c(=O)c32)c1OCC (centres undefined) 34.9%, c1ccc(CNc2nc(NCCc3ccncc3)c3sccc3n2)cc1 47.1%, Oc1sc(C=Nc2ccccc2)c2ccccc12 39.6%, CCCCOc1cccc(C2C(C(=O)c3ccc(C)o3)=C(O)C(=O)N2c2nnc(C)s2)c1 (centres undefined) 46%, COCCNc1nc(NCc2cccs2)nc2ccsc12 35.7%, CCCCN1C(=O)/C(=C/C=C2\Oc3ccccc3N2CC)SC1=S 47.6%, O=C1c2cccc3c(N4CCCCC4)ccc(c23)C(=O)N1c1ccc(O)cc1 43.7%, CCOC(=O)C1CCN(c2ncnc3c2c(-c2ccccc2)cn3-c2cccc(C)c2)CC1 47.1%, CCc1ccc(S(=O)(=O)NCC2(N3CCOCC3)CCCCC2)cc1 37.4%, N#Cc1ccc(-c2cccnc2)nc1SCC(=O)c1ccccc1 48.9%, N#CC1=C(N)Oc2cc(O)c(Cl)cc2C1c1cccnc1 (centres undefined) 34.6%, CSCCC(NC(=O)c1ccco1)C(=O)OC(C)C(=O)NC(=O)NC1CCCCC1 (centres undefined) 34.1%, CCNCCC(=O)N1c2ccccc2Sc2ccc(C(F)(F)F)cc21 42.3%, COc1ccc(C(=O)C(C)[n+]2ccc(C)c3ccccc32)cc1[N+](=O)[O-] (centres undefined) 40.9%, CC1Cc2cc(S(=O)(=O)N(Cc3ccccc3)C(C)C)ccc2N1C(=O)C1CCC1 (centres undefined) 30.6%, O=C(CS(=O)(=O)Cc1ccccc1)Nc1nnc(C2CCCCC2)s1 31.8%, CCCC(C(=O)n1nc(C)cc1C)C(NS(=O)(=O)c1ccc(C)cc1)c1ccccc1 (centres undefined) 39.1%, CN1CCc2c(sc3c2C(=O)NC(c2ccc(OC(=O)c4ccc(C(C)(C)C)cc4)cc2)N3)C1 (centres undefined) 41.1%, Cc1ccc(N/C(N)=N/c2nc(C)cc(C)n2)cc1 39.5%, Cc1cccc(C(=O)NC(=S)NNC(=O)c2ccc(Cl)cc2)c1 39.9%, Cc1ccc2nc(/C(C#N)=C/c3ccc(-c4ccccc4C(=O)O)o3)[nH]c2c1 35.1%, O=C1/C(=C\c2cc([N+](=O)[O-])ccc2O)SC(=S)N1Cc1ccc(Cl)cc1 47.6%, CCc1nc2c(c(=O)c3ccccc3n2C)c(=O)n1C1CCCCCC1 37%, O=C1NCCN1CCNc1nc(NCc2ccccc2)nc2ccsc12 38.6%, COc1ccccc1C(=O)NNC(=S)NC(=O)c1sc2ccccc2c1Cl 35.1%, Cc1cccc(C(=O)Nc2nc(-c3nnn(-c4cc(C)ccc4C)c3C)ns2)c1 46.6%, Cc1cccc(N2CCN(S(=O)(=O)c3c(C(=O)N4CCC(C)CC4)c(C)n(C)c3C)CC2)c1C 38.2%, O=C1c2ccccc2-c2onc3ccc(N4CCCC4)c1c23 37%, Cc1ccc(N2CCN(C(=O)c3cn(C)c4ccc(S(=O)(=O)N5CCC(C)CC5)cc4c3=O)CC2C)cc1 (centres undefined) 36.8%, c1ccc(CNc2nc(NCc3ccccc3)c3ccccc3n2)cc1 30.1%, O=C(NNC(=S)NC(=O)C12CC3CC(CC(C3)C1)C2)c1ccncc1 43.2%, O=C(N/N=C\c1c(O)ccc2ccccc12)c1cncc(Br)c1 48.2%, CN(C)c1ccc(/C=C2\Oc3ccc(C#Cc4cccc(N)c4)cc3C2=O)cc1 37.3%, CCN(CC)S(=O)(=O)c1ccc(N2CCOCC2)c(NS(=O)(=O)c2cc(C(C)(C)C)ccc2C)c1 38.4%, CCCCCCc1cc2cc(-c3nnc(-c4ccccc4OC)o3)c(=O)oc2cc1O 35%, COc1ccc(-c2nc3cc(C)c(Br)c(C)n3c2CC(C)(C)C)cc1OC 35.6%, CCC(=O)Oc1ccc2c(c1)O/C(=C\c1ccco1)C2=O 34.4%

activation, inactive:
COc1ccc2nc(SCC(=O)NC3CCCCC3C)[nH]c2c1 (centres undefined) 0.344%, CN1CCN(C(=O)c2ccccc2N(Cc2ccccc2)S(=O)(=O)c2ccccc2)CC1 -0.0358%, C[C@@H]1CN([C@@H](C)CO)C(=O)CCCn2nncc2CO[C@@H]1CN(C)C(=O)Nc1cccc(Oc2ccccn2)c1 -0.425%, Cc1ccc(-c2nc3ccccc3c(=O)n2NC(=O)c2cccs2)cc1 0.81%, Clc1ccc(Cl)c(OCCCCNCc2ccccc2)c1 0.641%, O=[N+]([O-])c1cc(C(F)(F)F)ccc1NC1CCN(Cc2ccccc2)C1 (centres undefined) 3.95%, Nc1nc(Nc2ccccc2F)sc1C(=O)c1ccc(Cl)cc1 2.12%, Cc1[nH]c2ccccc2c1/C=N/NC(=S)NCc1ccccc1 -0.0754%, CC(C)Cc1ccc(CN2CCC(n3nccc3NC(=O)C3CCCC3)CC2)cc1 -0.361%, COc1ccc(Oc2cnc3ccccc3n2)cc1 0.0827%, Cc1ccc(N(CC(=O)N2CCN(c3cccc(C)c3C)CC2)S(=O)(=O)c2c(C)nn(C)c2C)cc1 1.76%, CCOC(=O)C1CCC(CN(Cc2ccc(OC)cc2)S(=O)(=O)c2ccc(F)c(C(=O)Nc3c(C)cccc3C)c2)CC1 (centres undefined) 0.791%, COc1ccc(CCN(C)CC(O)COC(c2ccc(F)cc2)c2ccc(F)cc2)cc1OC (centres undefined) 2.8%, CCCNC(=O)C1(C)CCCN(C(=O)c2ccc(F)cc2Cl)C1 (centres undefined) -0.758%, Cc1ccsc1C1C(C#N)=C(N)Oc2n[nH]c(C)c21 (centres undefined) -0.387%, Cc1cccc(NC(=S)NC(=O)c2ccco2)c1C 0.449%, CCOC(=O)c1c(-c2ccccc2)oc2ccc(OCc3ccccc3Br)cc12 -0.378%, O=C(c1ccc(Cl)c(S(=O)(=O)Nc2ccc(F)cc2)c1)N1CCN(c2ccccn2)CC1 1.14%, CCCCN1CCCc2cc(CN(CCCN3CCOCC3)C(=O)Nc3ccc(CC)cc3)ccc21 2.67%

activation, active:
CCOC(=O)C1(CC2CCCCO2)CCN(Cc2cc3ccccc3[nH]2)CC1 (centres undefined) 94.9%, C1=C(c2ccc(-c3ccccc3)cc2)Nc2ncnn2C1c1ccco1 (centres undefined) 69.2%, CCOc1ccccc1-n1c(=S)sc2c(=O)n(-c3ccc(C)cc3)c(=S)[nH]c21 66.3%, N#C/C(=C/c1ccc(-c2ccc(S(N)(=O)=O)cc2)o1)c1nc2ccccc2s1 64.5%, CCN1/C(=C/C=C/c2oc3ccc4ccccc4c3[n+]2CC)Oc2ccc3ccccc3c21 63%, O=c1oc2c3c4c(cc2c(C(F)(F)F)c1CCN1CCOCC1)CCCN4CCC3 91.2%, C=C[C@@H]1c2cc(C)ccc2N(S(=O)(=O)c2ccc(C)cc2)[C@H](c2ccc(C(C)(F)F)cc2)C1(C#N)C#N 50.6%, CC(C)CC(=NNC(=O)c1ccncc1)c1cc(Cl)ccc1O 70.5%, CCN(CC)c1ccc2cc(-c3nc4ccccc4n3C)c(=O)oc2c1 60.7%, CCOC(=O)CC1C(=O)NCCN1c1nc2c(C)cccn2c(=O)c1/C=C1\SC(=S)N(C(C)CC)C1=O (centres undefined) 71%, N#C/C(=C\c1ccc(-c2ccc(C(=O)O)cc2)o1)c1nc2ccccc2[nH]1 74.4% and 60.8%, CCOc1ccc(NC(=O)C(Cc2ccccc2)N2C(=O)c3cccc4cccc(c34)C2=O)cc1 (centres undefined) 61.3%, CC(C)(C)n1nnnc1C(c1ccccc1F)N(Cc1ccco1)CC1CCCO1 (centres undefined) 66.1%, CCN(CC)c1ccc2cc(-c3nnc(-c4cccc(Cl)c4)o3)c(=O)oc2c1 61.9%
